{"source": "ChEMBL document CHEMBL4888484", "about": "“Replenishing the malaria drug discovery pipeline: Screening and hit evaluation of the MMV Hit Generation Library 1 (HGL1) against asexual blood stage Plasmodium falciparum ,using a nano luciferase reporter read-out” (2022)", "note": "Out of some 150,000 compounds screened, about 540 (0.36%) showed an effect of 50% or more. This is one part of the list."}
{"system": "Plasmodium falciparum", "experiment": "Primary screen in NF54 nanoGlo assay, in single point, at 2uM, 72h; a lower Z score goes with more inhibition", "format": "functional, Erythrocyte", "conditions": "timepoint 72 hour", "units": {"% Inhibition": "%"}}
{"smiles": "CC(NC(=O)C1CCCCC(=O)N1)C(C)C1CCCCC1", "note": "(stereo not drawn)", "% Inhibition": -8, "Z score": 0.91}
{"smiles": "COCCn1ccc2c(NC(=O)CC[C@@H]3NC(=O)c4ccccc4N=C3O)cccc21", "% Inhibition": -11, "Z score": 1.66}
{"smiles": "CC(C)CCc1nc(N2CCN(S(=O)(=O)Cc3ccccc3)CC2)c2cnn(-c3cccc(Cl)c3)c2n1", "% Inhibition": 0, "Z score": 0.04}
{"smiles": "CN(Cc1ccc(Oc2ccccc2)o1)Cc1nncn1C", "% Inhibition": -10, "Z score": 2.01}
{"smiles": "CC[C@@H](NS(=O)(=O)c1c(C)nn(C)c1C)c1ccccn1", "% Inhibition": -7, "Z score": 0.71}
{"smiles": "COc1ncnc2c1c(Br)cn2C", "% Inhibition": 0, "Z score": 0.05}
{"smiles": "Cn1nc2c(c1CNC(=O)[C@H]1CC1(C)C)CCCC2", "% Inhibition": -8, "Z score": 0.99}
{"smiles": "c1nnc(C2CCN(c3nnc(C4CC4)o3)CC2)n1C1CC1", "% Inhibition": -4, "Z score": 0.67}
{"smiles": "c1ccc(CCNc2ncccc2-c2nc(-c3ccccc3)no2)cc1", "% Inhibition": 22, "Z score": -2.55}
{"smiles": "CCCCN1CCc2ccc(NC(=O)C(C)C)cc21", "% Inhibition": -9, "Z score": 0.93}
{"smiles": "CCN(CC)CC(=O)NCC1CCCN(C)C1c1cccs1", "note": "(stereo not drawn)", "% Inhibition": -2, "Z score": 0.24}
{"smiles": "COc1ccc(Cl)cc1N1CCC(N2C(=O)[C@@H]3CCCN3C2=O)C1", "note": "(stereo partly drawn)", "% Inhibition": 2, "Z score": -0.32}
{"smiles": "COCCOCCN(Cc1ccccc1)c1cc(C)nc2nc(C(F)(F)F)nn12", "% Inhibition": 11, "Z score": -1.22}
{"smiles": "Cc1nc(C2CCNCC2)cc(N(C)Cc2ccsc2)n1", "% Inhibition": -3, "Z score": 0.36}
{"smiles": "C#CCn1ccnc1CNc1nc(C(C)C)no1", "% Inhibition": 1, "Z score": -0.08}
{"smiles": "CS(=O)(=O)N1CCC[C@H](CNC(=O)CC2CCCC2)C1", "% Inhibition": -3, "Z score": 0.31}
{"smiles": "Cc1nn(C)cc1C(C)NC(=O)C1CCCN1Cc1ccc(F)cc1", "note": "(stereo not drawn)", "% Inhibition": 0, "Z score": -0.02}
{"smiles": "O=C(Cn1cnc2ccccc21)NCc1cccc(Oc2ccc(F)cc2)c1", "% Inhibition": 2, "Z score": -0.39}
{"smiles": "NC(=O)c1cccnc1NCCc1nc2ccccc2[nH]1", "% Inhibition": -2, "Z score": 0.32}
{"smiles": "CC(CC(F)(F)F)C(=O)N1C[C@H]2COC[C@H]2C1", "note": "(stereo partly drawn)", "% Inhibition": 3, "Z score": -0.31}
{"smiles": "CC(C)NC(=O)CCN1CC[C@@]2(CCCN(Cc3ccc(C(C)C)cc3)C2=O)C1", "% Inhibition": 7, "Z score": -1.11}
{"smiles": "CC(C)(C)C1CC(C(=O)NCc2csc(=O)[nH]2)C1", "note": "(stereo not drawn)", "% Inhibition": -10, "Z score": 1.7}
{"smiles": "Cc1sc(-c2cc(C(F)(F)F)on2)cc1S(=O)(=O)Nc1ccc(F)cc1", "% Inhibition": -1, "Z score": 0.23}
{"smiles": "COc1ccc(NC(=O)CCNS(=O)(=O)c2ccc3c(c2)c(=O)n(C)c(=O)n3C)cc1OC", "% Inhibition": -5, "Z score": 0.81}
